The whole screen tested about 410,000 compounds, of which about 6,400 (1.6%) were called active. Inconclusive results, whose numbers are uncertain, are shown with a selection of clear calls. Calls follow the shape of the dose curve; as a rule, active = well fitted inhibition curve with a large enough effect; inconclusive = small, poorly fitted or top-dose-only effect; inactive = no such curve, though single readings can be large or run the other way. No potency is given beside an inconclusive call; the fits are too rough.
What follows are compounds tested against Glucagon-like peptide 1 receptor (Homo sapiens) (UniProt P43220) (assay: qHTS of GLP-1 Receptor Inverse Agonists (Inhibition Mode)). Settings: HEK293 GLP-1R CRE-luciferase, luminescence, 24 h, GLP-1R form is constitutively active; series mostly up to 38.3 µM.
Sequence of UniProt P43220 (P43220 whole entry, looked up): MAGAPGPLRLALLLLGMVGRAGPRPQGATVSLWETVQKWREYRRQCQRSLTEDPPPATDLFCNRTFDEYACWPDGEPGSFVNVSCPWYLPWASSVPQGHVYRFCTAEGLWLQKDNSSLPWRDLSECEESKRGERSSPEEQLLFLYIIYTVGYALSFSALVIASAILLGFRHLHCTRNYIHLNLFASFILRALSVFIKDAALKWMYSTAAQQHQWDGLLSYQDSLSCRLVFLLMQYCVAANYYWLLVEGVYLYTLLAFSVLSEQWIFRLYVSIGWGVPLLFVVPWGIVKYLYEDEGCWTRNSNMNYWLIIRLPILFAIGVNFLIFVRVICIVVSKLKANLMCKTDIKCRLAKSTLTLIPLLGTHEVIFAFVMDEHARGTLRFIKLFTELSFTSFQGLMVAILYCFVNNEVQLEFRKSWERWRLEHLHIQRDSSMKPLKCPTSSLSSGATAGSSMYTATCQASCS
In short: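 Inverse agonists were sought by their lowering of basal cAMP reporter luciferase output in HEK293 cells stably carrying constitutively active human GLP-1R, after 24 h compound treatment.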
Also: nearly all actives have a fitted effect of over 55% in size.
Potency is read from the fitted curve at half-maximal effect; tags tell the direction and shape of the fitted curve.

Row | SMILES | Potency
1 | COc1ccc(N=c2oc3cc(O)ccc3cc2C(=O)NCC2CCCO2)cc1 (stereo not drawn) | inactive
2 | CCOc1ccc(Nc2c3c(nc4ncnn24)CC(C)CC3)cc1 (stereo not drawn) | inactive
3 | CCCCNc1c2c3c(cccc3n(C)c1=O)C(=O)c1ccccc1-2 | inactive
4 | O=C(N/N=C/c1cn(-c2ccccc2)nc1-c1cccnc1)c1ccc(F)cc1 | inactive
5 | Cc1nc(SCc2nc3ccccc3[nH]2)c2oc3ccccc3c2n1 | inconclusive [inhibitor, single point]
6 | CC(C)c1ccc(NC(=O)CN2C(=O)CSc3ccc(S(=O)(=O)N4CCCC4)cc32)cc1 | inconclusive [inhibitor, partial curve]
7 | COc1ccc(Br)cc1CNC(=O)CCc1cn(Cc2ccc(C)cc2)c2ccccc12 | inactive
8 | CCC1CN(C(=O)N2CCC(C(=O)NCc3cccc(F)c3)CC2)c2ccccc2O1 (stereo not drawn) | inconclusive [inhibitor, partial curve, poor fit]
9 | Cc1ccc(C(=O)Nc2ccccc2N2CCCCC2)cc1[N+](=O)[O-] | inconclusive [inhibitor, single point]
10 | Cc1nc2ccc(NC(=O)CS(=O)(=O)c3ccc(F)cc3)cc2s1 | inactive
11 | COc1ccccc1N1CCN(S(=O)(=O)CCNC(=O)COc2ccccc2F)CC1 | inactive
12 | CN1CCCC1CCOC(C)(c1ccccc1)c1ccc(Cl)cc1 (stereo not drawn) | inconclusive [inhibitor, partial curve, poor fit]
13 | Cc1ccccc1N1CCN(Cc2cc3c(cc2[N+](=O)[O-])OCO3)CC1 | inconclusive [inhibitor, single point]
14 | COc1ccc(C(=O)/C=C/c2cccnc2)c(OC)c1 | inconclusive [inhibitor, single point]
15 | CCC(=O)N/N=C/c1ccc(-c2ccc([N+](=O)[O-])cc2)o1 | inactive
16 | O=C(CSc1nc2[nH]ncc2c(=O)[nH]1)NCc1ccccc1 | inactive
17 | COCCOC(=O)c1c(C)oc2ccc(OCc3ccccc3)cc12 | inconclusive [inhibitor, single point]
18 | CCN(c1ccc(OC)cc1)S(=O)(=O)c1nnc(NC(=O)c2ccco2)s1 | inactive
19 | CC(C(=O)Nc1ccc(S(=O)(=O)N2CCCC2)cc1)N(C)CC(=O)Nc1cccc(F)c1 (stereo not drawn) | inconclusive [inhibitor, single point]
20 | CC(=O)c1ccc(C(=O)N(Cc2cccnc2)c2nc3c(C)c(C)ccc3s2)cc1 | inactive
21 | O=C1CN(C(=O)COc2ccc(Cl)cc2)C(c2ccc(F)cc2)c2cc(Cl)ccc2N1 (stereo not drawn) | inconclusive [inhibitor, single point]
22 | CCOC(=O)CNC(=S)N(Cc1ccccc1)Cc1cccs1 | inconclusive [inhibitor, partial curve]

Row | SMILES | Potency
23 | O=C(N/N=C/c1cn(-c2ccccc2)nc1-c1cccs1)c1ccncc1 | inconclusive [inhibitor, single point]
24 | CN(C)S(=O)(=O)N1CCN(CC(O)COc2ccc3cc(Br)ccc3c2)CC1 (stereo not drawn) | inconclusive [inhibitor, partial curve, poor fit]
25 | c1ccc2c(c1)CC/C2=N/Nc1nc2ccccc2[nH]1 | inconclusive [inhibitor, partial curve, poor fit]
26 | CCOc1ccc(NC(=O)CCn2cccn2)cc1 | inactive
27 | Nc1c(C(=O)O)sc2nc(-c3ccccc3)cc(-c3ccc(Cl)cc3)c12 | inconclusive [inhibitor, partial curve, poor fit]
28 | COc1cccc(/C=N/NC(=O)CNC(=O)C(c2ccccc2)c2ccccc2)c1O | inconclusive [inhibitor, full curve]
29 | CCc1ccc(/C=C(\C)C(=O)c2c(C)cc(C)[nH]c2=O)cc1 | inconclusive [inhibitor, partial curve, poor fit]
30 | Cc1c(CC(=O)O)c(=O)oc2cc3occ(-c4ccc(F)cc4)c3cc12 | inactive
31 | c1ccc(N2CCN(Cc3cnc(N4CCOCC4)s3)CC2)cc1 | inconclusive [inhibitor, single point]
32 | CC(C)(C)OC(=O)NCCCC[C@H](NC(=O)c1nc[nH]c1C(=O)N1CCc2ccccc2C1)C(=O)OC(C)(C)C | inconclusive [inhibitor, single point]
33 | Clc1ccc(CN2C3=NCCN3c3ccccc32)cc1 | inconclusive [inhibitor, partial curve, poor fit]
34 | CCOC(=O)c1ccccc1NC(=O)N1CC(C)Oc2ccc(C)cc21 (stereo not drawn) | inconclusive [inhibitor, single point]
35 | COc1ccccc1C(=O)NC(CCSC)C(=O)NCC(c1ccco1)N(C)C (stereo not drawn) | inactive
36 | CC(c1ccccc1)N(CC(=O)NC1CCCCC1)S(=O)(=O)c1cccc(C(F)(F)F)c1 (stereo not drawn) | inconclusive [inhibitor, partial curve, poor fit]
37 | Cc1ccc(-c2ccc(CN3C(C(C)C)C(=O)N(Cc4cn(CCC5OCCO5)nn4)CCS3(=O)=O)cc2)cc1 (stereo not drawn) | inconclusive [inhibitor, single point]
38 | C/C(=N\N=C(N)N)c1ccc(Cl)c(Cl)c1 | active: 8.91 µM
39 | Cc1c(Cl)cccc1NS(=O)(=O)c1ccc(NS(=O)(=O)c2ccc3c(c2)OCCO3)cc1 | inconclusive [inhibitor, single point]
40 | COc1ccc(/C=N/NC(=O)c2cccc(COCC(F)(F)C(F)F)c2)cc1 | inconclusive [inhibitor, partial curve, poor fit]
41 | O=C(c1ccccc1F)N1c2nc(-c3ccco3)nn2C2(CCCCC2)[C@@H]2CCCC[C@@H]21 | inconclusive [inhibitor, single point]
42 | COc1ccc(-c2nc(NC(C)=O)sc2-c2ccccc2)cc1 | inconclusive [inhibitor, partial curve, poor fit]
43 | Clc1cccc(-c2ccc(CNCCCN3CCOCC3)o2)c1 | inconclusive [inhibitor, partial curve, poor fit]

Reference: PubChem BioAssay AID624417 (National Center for Advancing Translational Sciences (NCATS), 2012)
